Experimental data taken from the supplement of paper PMC3334620.
Over roughly 33,000 sequences, “E-score (-0.5 to 0.5)” has its median near -0.054; the highest 2% begin near 0.35. The list shows a part of the results.

What follows are sequences tested against T1, Stb5 (UniProt P38699) (assay: PBM E-score (8-mer binding enrichment) (E-score (-0.5 to 0.5)); higher = stronger / more preferred TF binding; most listed sequences are background and not binding sites). Details: protein concentration: 200 nM; construct: GST-full length.
T1 sequence: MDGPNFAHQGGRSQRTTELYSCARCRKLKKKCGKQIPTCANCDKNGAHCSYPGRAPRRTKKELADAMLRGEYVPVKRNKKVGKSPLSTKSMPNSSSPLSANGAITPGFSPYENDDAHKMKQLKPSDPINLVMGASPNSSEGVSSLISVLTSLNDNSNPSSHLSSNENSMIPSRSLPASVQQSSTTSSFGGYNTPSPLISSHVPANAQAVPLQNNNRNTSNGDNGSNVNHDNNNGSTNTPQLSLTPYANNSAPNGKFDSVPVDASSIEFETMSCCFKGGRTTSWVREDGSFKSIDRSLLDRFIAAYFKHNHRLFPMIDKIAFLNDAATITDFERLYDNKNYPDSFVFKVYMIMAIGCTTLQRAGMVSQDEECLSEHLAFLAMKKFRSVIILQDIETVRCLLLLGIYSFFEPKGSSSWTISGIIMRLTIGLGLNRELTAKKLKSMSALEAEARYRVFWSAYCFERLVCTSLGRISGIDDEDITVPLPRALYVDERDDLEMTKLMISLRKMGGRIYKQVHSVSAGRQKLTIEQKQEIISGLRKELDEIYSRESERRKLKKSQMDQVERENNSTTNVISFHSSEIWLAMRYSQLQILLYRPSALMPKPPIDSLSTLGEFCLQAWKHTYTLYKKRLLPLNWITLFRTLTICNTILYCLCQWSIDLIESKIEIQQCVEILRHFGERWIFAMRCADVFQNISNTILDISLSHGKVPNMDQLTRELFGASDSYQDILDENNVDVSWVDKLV
In short: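 Full-length yeast transcription factors or their DNA-binding domains, GST-tagged and expressed with PURExpress, were applied at about 100-200 nM to universal all-10-mer Agilent arrays. These arrays had been made double-stranded by primer extension on fresh or once-stripped slides. Detection used fluorescent anti-GST, normalisation used masliner, and E-scores for ungapped eight-base words pooled with reverse complements came from the Universal PBM Analysis Suite.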
CCATCATA was tested, and the “PBM E-score” value was -0.19.
AGCTTACC was tested, and the “PBM E-score” value was -0.0132.
AATGGCCC was tested, and the “PBM E-score” value was 0.0152.
ACGTCACG was tested, and the “PBM E-score” value was -0.12.
With CGGAATGC the “PBM E-score” value was 0.0722.
In the case of GAGACAAC, the “PBM E-score” value was -0.1.
AAAGCAGT was tested, and the “PBM E-score” value was -0.307.
AACGAGGG was tested, and the “PBM E-score” value was -0.19.
CTTATCTC was tested, and the “PBM E-score” value was -0.0986.
For CAGACCTG, the “PBM E-score” value was -0.288.
For AGGTTAAT, the “PBM E-score” value was -0.1.
For ACTCAGAA, the “PBM E-score” value was -0.0804.
In the case of CCGGGACA, the “PBM E-score” value was 0.246.
With GCTGTACC the “PBM E-score” value was 0.0959.
AAGGTGCG was tested, and the “PBM E-score” value was 0.166.
AGGATTAG was tested, and the “PBM E-score” value was -0.2.
For CGCACGCC, the “PBM E-score” value was -0.0263.
In the case of ATTTGTTC, the “PBM E-score” value was 0.0488.
In the case of ACTCTCTG, the “PBM E-score” value was -0.163.
With GGTCGTAA the “PBM E-score” value was 0.255.
GACTTTGC was tested, and the “PBM E-score” value was 0.0127.
AAAACATA was tested, and the “PBM E-score” value was -0.0479.
With AGTATCTC the “PBM E-score” value was 0.121.
With AATACGTG the “PBM E-score” value was -0.0843.
With GACGGATC the “PBM E-score” value was 0.162.
ATTGATTG was tested, and the “PBM E-score” value was -0.117.
With ATAAATTG the “PBM E-score” value was 0.0566.
For GCTTTAAC, the “PBM E-score” value was -0.0801.
CTAGGATA was tested, and the “PBM E-score” value was 0.0118.
ACGCTATG was tested, and the “PBM E-score” value was -0.0654.
In the case of CCATTCCC, the “PBM E-score” value was -0.128.
In the case of CGTGAACG, the “PBM E-score” value was 0.00374.
AAAACGTA was tested, and the “PBM E-score” value was -0.168.
In the case of CGTTCACC, the “PBM E-score” value was 0.118.
With TAACCGTA the “PBM E-score” value was 0.0605.
In the case of GGACCCAA, the “PBM E-score” value was 0.117.
With GCTATTCA the “PBM E-score” value was 0.0761.
For ATCCAGGG, the “PBM E-score” value was -0.0739.
For AGTCCGGG, the “PBM E-score” value was 0.274.
In the case of CTGCCTAC, the “PBM E-score” value was -0.13.
In the case of CGTCGCCA, the “PBM E-score” value was -0.259.
In the case of GCCAGCTA, the “PBM E-score” value was -0.2.
In the case of CGGGTGAA, the “PBM E-score” value was 0.129.
In the case of GGCCGGAC, the “PBM E-score” value was 0.331.
CCCGCGCG was tested, and the “PBM E-score” value was 0.342.
GAGAGAAA was tested, and the “PBM E-score” value was -0.148.
With CTACATAA the “PBM E-score” value was -0.0124.
In the case of GTTGCAAC, the “PBM E-score” value was 0.183.
In the case of CATAGGCC, the “PBM E-score” value was 0.159.
CCTGGAGC was tested, and the “PBM E-score” value was 0.0292.
In the case of ACTATTAC, the “PBM E-score” value was 0.0396.
TATAACCA was tested, and the “PBM E-score” value was 0.0633.
CTAAAGTC was tested, and the “PBM E-score” value was -0.152.
In the case of ACGGCCGG, the “PBM E-score” value was 0.272.
For ACATTTGA, the “PBM E-score” value was 0.0192.
For AATCTTGC, the “PBM E-score” value was -0.142.
For TAAGCGAA, the “PBM E-score” value was -0.058.
For ACCATCGA, the “PBM E-score” value was -0.298.
GTCAGCAA was tested, and the “PBM E-score” value was -0.184.
For AGCCATTA, the “PBM E-score” value was -0.127.
In the case of TGACATCA, the “PBM E-score” value was -0.19.
ACACGTTC was tested, and the “PBM E-score” value was -0.168.
AAGAAACC was tested, and the “PBM E-score” value was 0.0277.
TAATTAGA was tested, and the “PBM E-score” value was -0.0496.
In the case of AATGCCGG, the “PBM E-score” value was 0.401.
GCGATCAC was tested, and the “PBM E-score” value was 0.0708.
For AAAAATAT, the “PBM E-score” value was -0.0716.
In the case of GGCTCAAA, the “PBM E-score” value was 0.153.
For CCAACCTC, the “PBM E-score” value was -0.111.
With ACTCGCCC the “PBM E-score” value was -0.257.
CTTGGCGA was tested, and the “PBM E-score” value was -0.161.
With AAGAGCTA the “PBM E-score” value was -0.157.
With AGACCAAC the “PBM E-score” value was -0.225.
For CAAGGATG, the “PBM E-score” value was -0.297.
In the case of AGCCAACA, the “PBM E-score” value was -0.201.
In the case of ATCTCAGG, the “PBM E-score” value was -0.178.
In the case of AGAGCGAT, the “PBM E-score” value was -0.138.
With ACGCGTGC the “PBM E-score” value was -0.0579.
In the case of AGGGTGGG, the “PBM E-score” value was -0.136.
ACCAAAGC was tested, and the “PBM E-score” value was 0.0189.
With ATGATTTG the “PBM E-score” value was -0.115.
With CATGTTAG the “PBM E-score” value was -0.255.
AGCCGGCA was tested, and the “PBM E-score” value was 0.256.
In the case of GCACGTCA, the “PBM E-score” value was -0.0656.
For CCTACAAC, the “PBM E-score” value was -0.0921.
GCCACACC was tested, and the “PBM E-score” value was -0.0947.
ATCACGTA was tested, and the “PBM E-score” value was -0.221.
ATTTGTAG was tested, and the “PBM E-score” value was -0.257.
With ATTGGATC the “PBM E-score” value was 0.0452.
CGGGAGGC was tested, and the “PBM E-score” value was -0.136.
TGGTACAA was tested, and the “PBM E-score” value was -0.329.
With ACTAATCC the “PBM E-score” value was 0.17.
In the case of GCCTGCCC, the “PBM E-score” value was -0.0993.
With TATTATGA the “PBM E-score” value was -0.183.
For CTGAGTTA, the “PBM E-score” value was -0.0893.
AACCGCGG was tested, and the “PBM E-score” value was 0.347.
In the case of AAGCGCCT, the “PBM E-score” value was 0.0194.
In the case of GAGGGCCC, the “PBM E-score” value was 0.0438.
For CACTTTGA, the “PBM E-score” value was -0.0962.
GCATTGGC was tested, and the “PBM E-score” value was -0.236.
With TAGGCATA the “PBM E-score” value was -0.0974.
With ACCCCTGC the “PBM E-score” value was -0.114.
GCAATGTA was tested, and the “PBM E-score” value was -0.0403.
In the case of CGAATTTA, the “PBM E-score” value was 0.0452.
For ACTATCTG, the “PBM E-score” value was -0.228.
AAGTGCAT was tested, and the “PBM E-score” value was -0.167.
For CCCTCCAA, the “PBM E-score” value was -0.058.
With AGGCTCAT the “PBM E-score” value was -0.189.
With ACCAGAAA the “PBM E-score” value was -0.162.
ACAGAAAT was tested, and the “PBM E-score” value was -0.0874.
With TCGAAGAA the “PBM E-score” value was -0.214.
For ACCTGTAA, the “PBM E-score” value was -0.0837.
With CCCAGTAA the “PBM E-score” value was -0.198.
GCGTTAAC was tested, and the “PBM E-score” value was 0.226.
In the case of CTTTATGC, the “PBM E-score” value was 0.11.
TTGTAAAA was tested, and the “PBM E-score” value was -0.079.
For ACATCGAG, the “PBM E-score” value was -0.146.
With AACGGCTG the “PBM E-score” value was 0.00326.
With AAATTGGC the “PBM E-score” value was -0.0492.
In the case of CCATACAC, the “PBM E-score” value was -0.0464.
In the case of AAGCCACG, the “PBM E-score” value was -0.0184.
AGCGCGAG was tested, and the “PBM E-score” value was -0.0563.
With TAATCCGA the “PBM E-score” value was 0.0662.
CTTAAAAG was tested, and the “PBM E-score” value was -0.187.
With CGAGATAG the “PBM E-score” value was -0.00732.
With ACAAGGAG the “PBM E-score” value was -0.135.
For ATTCGCAG, the “PBM E-score” value was -0.0626.
In the case of AAGTTAGA, the “PBM E-score” value was -0.13.
For ACAAGATG, the “PBM E-score” value was -0.211.
AGTGCGCG was tested, and the “PBM E-score” value was 0.0549.
With GTGATCAA the “PBM E-score” value was -0.148.
ATGTTACC was tested, and the “PBM E-score” value was 0.24.
For CTAATGAG, the “PBM E-score” value was -0.147.
With CCGCACGA the “PBM E-score” value was 0.159.
In the case of ATAGCACG, the “PBM E-score” value was -0.0126.
AAGGTATT was tested, and the “PBM E-score” value was 0.136.
CCCATGAC was tested, and the “PBM E-score” value was -0.202.
With CAATAGTC the “PBM E-score” value was -0.0774.
ACCGGATA was tested, and the “PBM E-score” value was 0.209.
For AAAACGTT, the “PBM E-score” value was -0.133.
For CCTCAAGC, the “PBM E-score” value was -0.181.
In the case of GGCAGGCA, the “PBM E-score” value was -0.118.
In the case of GTGGACTA, the “PBM E-score” value was 0.0993.
In the case of ACGCGCCT, the “PBM E-score” value was 0.013.
With GTGCGGGA the “PBM E-score” value was 0.297.
CAAATAAA was tested, and the “PBM E-score” value was 0.00893.
In the case of AAGCGGTG, the “PBM E-score” value was 0.344.
In the case of AATAGTCG, the “PBM E-score” value was 0.0284.
GCGAGCCC was tested, and the “PBM E-score” value was 0.0242.
CCTAGATA was tested, and the “PBM E-score” value was -0.176.
CGGTAACA was tested, and the “PBM E-score” value was 0.36.
GCCCGTGA was tested, and the “PBM E-score” value was 0.123.
With AAGAGGCG the “PBM E-score” value was -0.132.
With AAGCACTT the “PBM E-score” value was -0.144.
AGAGCCAC was tested, and the “PBM E-score” value was -0.105.
For CTGTAGGA, the “PBM E-score” value was -0.0922.
In the case of CGTGACCA, the “PBM E-score” value was -0.197.
For GCCTAGCC, the “PBM E-score” value was 0.156.
AGCTCATA was tested, and the “PBM E-score” value was -0.0979.
In the case of AGGGAGCA, the “PBM E-score” value was -0.336.
TTCGTAAA was tested, and the “PBM E-score” value was -0.0719.
With AGCATTGA the “PBM E-score” value was -0.357.
For ACACAACT, the “PBM E-score” value was -0.146.
With AACTCACT the “PBM E-score” value was -0.247.
CGGCTAGC was tested, and the “PBM E-score” value was -0.0991.
For TCCCCGCA, the “PBM E-score” value was 0.332.
For CATTGGCA, the “PBM E-score” value was -0.217.
With AGTCTTGG the “PBM E-score” value was -0.142.
GGCCAAAC was tested, and the “PBM E-score” value was 0.158.
For CAAAGTTG, the “PBM E-score” value was -0.237.
AAGAACAT was tested, and the “PBM E-score” value was -0.0596.
CACATCGA was tested, and the “PBM E-score” value was -0.182.
